Test results taken from PubChem BioAssay AID488969 (Vanderbilt High Throughput Screening Facility, 2010).
Whole data set: some 110,000 compounds, median “z-score” near -0.1, cut for the highest 2% near 2. Some of the results follow.

biological target: Metabotropic glutamate receptor 8 (Rattus norvegicus) (UniProt P70579); experiment: rat mGluR8 modulators via GIRK flux, primary screen, cell-based, thallium flux, HTS (AID 488969); details: HEK293 rat mGluR8, GIRK (G protein-gated inwardly rectifying potassium channel) thallium flux, FluoZin2; at 10 µM; stronger effect = higher value; submaximal glutamate (EC20) added with thallium
Chain of UniProt P70579 (P70579 whole entry, looked up): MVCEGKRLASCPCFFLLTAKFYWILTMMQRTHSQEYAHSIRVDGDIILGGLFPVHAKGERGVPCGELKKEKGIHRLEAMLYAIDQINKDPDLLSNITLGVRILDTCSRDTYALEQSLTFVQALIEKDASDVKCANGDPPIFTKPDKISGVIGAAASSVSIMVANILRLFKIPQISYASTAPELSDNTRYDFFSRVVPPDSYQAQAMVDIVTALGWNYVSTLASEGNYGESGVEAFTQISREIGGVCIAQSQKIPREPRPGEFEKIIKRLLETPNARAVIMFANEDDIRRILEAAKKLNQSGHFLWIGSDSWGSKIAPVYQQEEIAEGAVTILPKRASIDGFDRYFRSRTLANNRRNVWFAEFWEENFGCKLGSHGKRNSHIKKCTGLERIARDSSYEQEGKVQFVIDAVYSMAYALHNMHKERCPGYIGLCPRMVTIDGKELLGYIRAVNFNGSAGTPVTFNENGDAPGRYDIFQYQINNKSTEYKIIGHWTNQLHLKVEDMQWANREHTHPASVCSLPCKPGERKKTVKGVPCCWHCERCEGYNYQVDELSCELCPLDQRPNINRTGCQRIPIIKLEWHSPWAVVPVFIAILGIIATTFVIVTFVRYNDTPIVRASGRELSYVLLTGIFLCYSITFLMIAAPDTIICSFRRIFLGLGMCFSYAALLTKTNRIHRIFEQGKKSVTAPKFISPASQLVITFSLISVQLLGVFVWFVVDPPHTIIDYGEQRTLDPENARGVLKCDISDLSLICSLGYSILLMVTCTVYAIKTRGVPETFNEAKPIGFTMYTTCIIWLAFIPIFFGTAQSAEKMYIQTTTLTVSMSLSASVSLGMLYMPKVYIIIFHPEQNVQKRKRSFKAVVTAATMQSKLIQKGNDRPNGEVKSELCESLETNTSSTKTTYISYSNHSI

| SMILES | z-score |
| --- | --- |
| CCN(CC)C(=O)CSc1nc(O)c(Cc2ccccc2)c(=O)n1-c1ccccc1 | -0.458 |
| Cc1ccc(C)n1-c1ccc(C(=O)N2CCOCC2)cc1 | 0.198 |
| Cc1nc2sc3c(c2c(=O)o1)CCCC3 | -0.121 |
| COc1ccc(NC(=O)C2C3C=CC(C3)C2C(=O)NCc2ccco2)c(OC)c1 (stereo unspecified) | 0.342 |
| CC(=O)Nc1ccc(S(=O)(=O)Oc2cccc(N3C(=O)C4CC=CCC4C3=O)c2)cc1 (stereo unspecified) | -0.193 |
| C=CCS(=O)(=O)c1nc2ccccc2s1 | 0.0304 |
| CCC1CCCCN1CCNS(=O)(=O)c1ccc2c(c1)CCN2C(C)=O (stereo unspecified) | 0.44 |
| Cc1ccc(S(=O)(=O)N/N=C\c2cccnc2)cc1 | 0.22 |
| CCOc1cc2oc(=O)c3c(c2cc1Cl)CCC3 | -0.228 |
| O=C(/C=C/c1cccc([N+](=O)[O-])c1)NCCSCc1ccco1 | -0.24 |
| COc1ccccc1C(=O)N/N=C(\C)c1ccc(NC(=O)C2CC2)cc1 | -0.0805 |
| O=C(CCc1nc2ccccc2s1)OCC(=O)N1CCN(C(=O)c2ccco2)CC1 | -0.142 |
| Cc1ccc(C)c(Cn2c(=O)n(CCC(=O)NCc3ccco3)c(=O)c3sccc32)c1 | -0.0143 |
| COc1ccc(C(=O)Nc2ccc(Cl)cc2C(=O)N2CCCC(C)C2)cc1OC (stereo unspecified) | -0.274 |
| O=C(/C=C/c1ccccc1[N+](=O)[O-])Nc1cccnc1 | -0.103 |
| CC(C)CCn1c(=O)c(C(=O)N/N=C/c2cccc(F)c2)c(O)c2ccccc21 | -0.147 |
| O=C1CC(c2ccccc2)CCc2sccc2N1 (stereo unspecified) | 0.252 |
| CCOC(=O)c1c(-c2ccc(OC)cc2)csc1/N=C/C1=C(O)CCCC1=O | -0.288 |
| Cc1c(NC(=O)C(C)N2C(=O)c3ccccc3C2=O)c(=O)n(-c2ccccc2)n1C (stereo unspecified) | 0.885 |
| Cc1cccc(N2CCN(C(=O)NCc3ccc(Cl)cc3)CC2)c1 | -0.188 |
| O=C(CN1CCOCC1)N/N=C/c1cc2ccccc2nc1Cl | 0.0436 |
| CCCCNc1ccccc1C(=O)OCC(=O)Nc1ccc(S(N)(=O)=O)cc1 | -0.207 |
| CC(=O)C1=C(C)NC(SCc2cccc([N+](=O)[O-])c2)=C(C#N)C1c1ccco1 (stereo unspecified) | -0.0757 |

| SMILES | z-score |
| --- | --- |
| CCS(=O)(=O)n1nc(-c2ccc(Cl)cc2)nc1SCc1ccccc1 | 0.375 |
| Cc1ccc(C(=O)COC(=O)c2cc(Cl)nc3ccccc23)cc1C | -0.159 |
| C=CCSC1=C(C#N)C(c2cc(Br)c(O)c(OC)c2)CC(=O)N1 (stereo unspecified) | 0.26 |
| Cc1c(CCOC(=O)CC23CC4CC(CC(C4)C2)C3)sc[n+]1Cc1ccccc1 | 0.256 |
| Cc1nn2c(c1-c1ccccc1)NC1=C(C(=O)CCC1)C2c1ccccc1 (stereo unspecified) | -0.188 |
| O=C(NC1CCS(=O)(=O)C1)Oc1ccccc1 (stereo unspecified) | -0.0372 |
| Cn1c(N)c(C#N)c2c(c1=S)CSC(C)(C)C2 | -0.0399 |
| CCc1ccccc1N1CC(C(=O)O)CC1=O (stereo unspecified) | 0.153 |
| O=C(Nc1ccc(Oc2ccc3c(c2)C(=O)N(c2ccc(O)cc2)C3=O)cc1)c1cccs1 | 0.214 |
| Cc1c(C(=O)NC(=S)Nc2ccc(NC(=O)c3cccs3)cc2)cccc1[N+](=O)[O-] | 0.0683 |
| Cc1cc(C)cc(OCC(=O)NNC(=O)CCC(=O)NCc2ccccc2)c1 | 0.00431 |
| CCOc1ccc(C(=O)O/N=C(\N)c2ccc([N+](=O)[O-])cc2)cc1OCC | 0.434 |
| Cc1cccc(NC(=O)COc2cccc3c2CCN(Cc2ccccc2)C3=O)c1C | -0.27 |
| CC(Oc1cccc2c1OC(C)(C)C2)C(=O)O (stereo unspecified) | 0.766 |
| Cc1ccc(S(=O)(=O)NCCC(=O)O)cc1 | -0.647 |
| Cc1c(Cl)cccc1NC(=O)CNC(=O)c1ccc(F)cc1 | 0.862 |
| Cc1ccc2nsnc2c1NC(=O)c1ccc2c(c1)OCCO2 | -0.679 |
| Oc1ccc(Cl)cc1-c1cc(-c2cccc(Br)c2)n[nH]1 | -0.241 |
| CCS(=O)(=O)CCSC(=N)N | -0.029 |
| COc1cc(NC(=O)COC(=O)Cc2ccc(-c3ccccc3)cc2)cc(OC)c1 | -0.324 |
| COc1ccc2nc(/N=C(\N)NC(=O)Nc3ccccc3)nc(C)c2c1 | -0.147 |
| CCOC(=O)N1CCN(S(=O)(=O)c2ccc(Br)s2)CC1 | -0.217 |
| COc1ccc(C(=O)COC(=O)Cn2nnc3ccccc32)cc1Br | -0.984 |

| SMILES | z-score |
| --- | --- |
| Cc1c(C(=O)c2ccc(Cl)cc2Cl)cnc2cc3c(cc12)OCO3 | -0.247 |
| O=C(CN1C(=O)COc2ccccc21)N1CCc2ccccc21 | 0.0285 |
| c1ccc(-c2csc(-n3cnnn3)n2)cc1 | -0.379 |
| O=c1c2ccccc2c2ccccc2c(=O)n1CC1CCCO1 (stereo unspecified) | -0.00913 |
| O=C(O)CC1C(=O)NCCN1CCCc1ccccc1 (stereo unspecified) | 0.0778 |
| Cc1ccc(-n2ncc(C(=O)N3CCc4ccccc4C3)c2NC(=O)c2ccco2)cc1C | -0.674 |
| CCOc1ccc(-c2nnn(CC(=O)NCc3ccco3)n2)cc1 | 0.0502 |
| COc1cc(Cn2c(=O)oc3ccc(C)cc32)ccc1OC(C)C | -0.204 |
| CN(c1ccc(OCC(=O)OCC(=O)Nc2ccc(Br)cc2)cc1)S(=O)(=O)c1cccs1 | -0.406 |
| COc1cc(CNCc2ccccn2)ccc1OCc1ccc(Cl)cc1 | 0.427 |
| CCSc1nnc(NC(=O)CSc2nc(CC)nc3c2c(=O)n(C)c(=O)n3C)s1 | -0.256 |
| O=[N+]([O-])c1ccc(N2CCCCCC2)c([N+](=O)[O-])c1 | -0.000557 |
| CCN(CC)c1ccc(/C=N/N(c2ccccc2)c2ccccc2)c(O)c1 | 0.0821 |
| O=C(O)/C=C/C(=O)Nc1ccc(F)cc1F | -0.309 |
| O=C(NCc1ccccc1)C(c1ccc(F)cc1)N(Cc1ccc2c(c1)OCO2)C(=O)Cn1nnc(-c2cccs2)n1 (stereo unspecified) | -0.0154 |
| COc1ccc(C2(CNC(=O)c3cc([N+](=O)[O-])cc([N+](=O)[O-])c3)CCCC2)cc1OC | -0.226 |
| NC(=O)CSc1nnc(-c2cnccn2)n1-c1ccccc1 | 0.0631 |
| Cc1cc(OCC(=O)Nc2ccncc2)c(C)cc1Br | -0.215 |
| CC1CN(C(=O)Cn2c(C(F)(F)F)nc3ccccc32)CC(C)O1 (stereo unspecified) | -0.537 |
| Cc1ccc(-n2c(=O)c(C#N)cc3c(=O)n4ccccc4nc32)cc1 | -0.274 |
| COc1ccc(CNC(=O)/C=C/c2ccc(OCCCF)cc2)cc1 | 0.0944 |
| CSC1=C(C#N)C(c2ccccc2Cl)C(C(C)=O)=C(C)N1 (stereo unspecified) | -1.68 |
| Cc1cc(C)n(-c2nc3ccccc3[nH]c2=O)n1 | -0.181 |

| SMILES | z-score |
| --- | --- |
| Cc1ccc(-n2c(C)cc(C=C(C#N)C#N)c2C)cc1 | -0.127 |
| COc1cc(S(=O)(=O)N(Cc2ccco2)C2CCCC2)ccc1-n1cnnn1 | 0.94 |
| COc1ccc(OC)c(NC(=O)C23CCC(C)(C(=O)C2)C3(C)C)c1 (stereo unspecified) | -0.0351 |
| S=C(Nc1ccc2nsnc2c1)NC1CCCCC1 | 1.94 |
| COC(=O)Cn1ncc2c3ccccc3n(C)c2c1=O | 0.358 |
| CC1(C)CC(O)C(CCC(O)c2ccccc2)C(C)(C)N1 (stereo unspecified) | 0.702 |
| O=C(CCN1C(=O)/C(=C/C=C/c2ccccc2)SC1=S)Nc1cccnc1 | 0.578 |
| CC(C#N)Sc1ncnc2sc3c(c12)CCC3 (stereo unspecified) | 0.00954 |
| COC(=O)c1sccc1NC(=O)c1c(-c2ccccc2)noc1C | -0.0888 |
| COc1ccc(OC)c(S(=O)(=O)NCc2cn3cccc(C)c3n2)c1 | 0.746 |
| CCCOC(=O)c1c(NC(=O)c2cnn3c2NC(c2ccccc2)CC3C(F)(F)F)sc2c1CCCC2 (stereo unspecified) | -0.0376 |
| CCCCSCCCNC(=O)CS(=O)Cc1nc(-c2cccc(C)c2)oc1C (stereo unspecified) | -1.3 |
| Cc1ccsc1C(=O)Nc1nnc(-c2ccco2)o1 | 0.832 |
| CCOc1cccc(NCc2cc3c(C(C)(C)C)nn(-c4ccccc4)c3[nH]c2=O)c1 | -0.104 |
| CC(=O)Nc1ccc(S(=O)(=O)CCC#N)cc1 | 0.135 |
| Cc1cc(CN2C(=O)c3ccccc3C2=O)cc(N2CCOCC2)c1 | -0.382 |
| Nc1nonc1C(=O)OCC(=O)c1ccc(Cl)cc1 | 0.669 |
| COc1ccc(/C=N/NC(=O)c2cccc(Br)c2)cc1Cn1cc(Cl)cn1 | 0.178 |
| CC(=O)Nc1ccc(NC(=O)c2ccccc2C)cc1 | -0.192 |
| c1ccc(SCc2nc(-c3cccnc3)no2)cc1 | 0.56 |
| CC(=O)Nc1ccc(N/C(C)=C/C(=O)c2cccnc2)cc1 | -0.0636 |
| O=C(O)c1cccc(NC(=O)C23CC4CC(C2)CC(n2cnc(Cl)n2)(C4)C3)c1 | -0.548 |
| CCOc1ccccc1N1CSC2=C(C#N)C(c3c(OC)ccc4ccccc34)CC(=O)N2C1 (stereo unspecified) | -0.15 |

| SMILES | z-score |
| --- | --- |
| COc1ccc(-c2nnc3sc(-c4cccs4)nn23)cc1OC | -0.293 |
| CC(C)CN1C(=O)c2ccc(NC(=O)c3cccs3)cc2C1=O | -0.259 |
| CC(C)(C)OC(=O)NCC12C=CC(O1)C1C(=O)N(Cc3ccccc3)C(=O)C12 (stereo unspecified) | -0.127 |
| CCC(C(=O)OC)n1cnc2c(nnn2-c2ccc(OC)cc2)c1=O (stereo unspecified) | -0.912 |
| CCCCN1Cc2cc(C(=O)c3cc(OC)ccc3O)cnc2NC1=O | -0.207 |
| Cc1ccc2c(c1)C=CC(C)(C)S2(=O)=O | 0.142 |
| COc1ccccc1CNC(=O)C(C)NS(=O)(=O)c1ccc(C)cc1 (stereo unspecified) | 0.164 |
| O=C(Nc1ccccc1NC(=O)c1c(F)c(F)c(F)c(F)c1F)c1c(F)c(F)c(F)c(F)c1F | -0.051 |
| COc1ccc(C(=O)CSc2nc(N)nc(SC)c2C#N)cc1 | -0.106 |
| Cc1ccc(Nc2ncccc2C(=O)NCc2cccs2)c(C)c1 | -0.127 |
| COCCN(CC(=O)NC1CCCCC1)C(=O)c1csnn1 | -0.0901 |
| O=C(Nc1ccc(NC(=O)c2ccco2)cc1)c1cnccn1 | 0.103 |
| Cc1ccc(NC(=O)Cn2nc(C)c3ccccc3c2=O)cc1 | -0.332 |
| Cc1ccc(C(=O)C(C)OC(=O)c2ccccc2[N+](=O)[O-])cc1 (stereo unspecified) | -0.0247 |
| COc1ccc2nc(NC(=O)CSc3nc4cccnc4n3C)sc2c1 | -0.89 |
| COc1ccc(S(=O)(=O)Nc2ccc(NC(C)=O)cc2)cc1OC | 0.15 |
| COc1cccc(NC(=O)Cn2cc3c(n2)CCCCC3)c1 | 2.89 |
| CCOC(=O)C(C)Sc1nnc(NC(=O)c2ccc(C)c([N+](=O)[O-])c2)s1 (stereo unspecified) | -0.109 |
| COc1ccc(C(CNC(=O)c2ccc(-n3cnnn3)cc2)N2CCOCC2)cc1 (stereo unspecified) | 0.602 |
